# Experimental data from PubChem BioAssay AID463173 (ICCB-Longwood Screening Facility, Harvard Medical School, 2010).
# The campaign covered roughly 52,000 compounds. About 1,700 (3.3%) were called active. Cut-off read from the data, not from the text of the source: active = survival mostly below about 52% (no sharp cut-off); inactive = mostly above about 56%. The list shows a part of the results.
# Tested on: Wild type
# Assay: S. aureus survival, RN4220 and DeltatarO strains – OD600, teichoic acid synthesis inhibitors, primary screen (AID 463173)
# Settings: S. aureus RN4220 wild type/DeltatarO growth, OD600, 18 h, stronger effect = lower value, screened at 18.75 µg/mL (by protocol)
row,Structure (SMILES),survival
1,Cc1cc(Nc2ccc(Br)c(C)c2)n2nc(-c3ccco3)nc2n1,active: -6%
2,COc1ccc(OC)c(NC(=O)N2CC3CCCN3c3ccccc32)c1 (stereo unspecified),inactive: 80%
3,CCOC(=O)Cc1c(C(=O)OCC)nnc2c(-c3ccccc3)c(C)nn12,inactive: 71%
4,CC(=O)c1ccc(NC(=O)CC2Oc3ccc(C)cc3NC2=O)cc1 (stereo unspecified),inactive: 89%
5,COCCNc1oc(-c2ccc(OC)cc2)nc1C#N,inactive: 70%
6,CCOC(=O)c1cccc(NC(=O)N2CC=C(c3c[nH]c4ccccc34)CC2)c1,inactive: 72%
7,Cc1cc(C)n2nc(CNS(=O)(=O)c3ccccc3)nc2n1,inactive: 122%
8,CCOC(=O)c1ccccc1NC(=O)COC(=O)CC(C)(C)CC1=NS(=O)(=O)c2ccccc2N1,inactive: 63%
9,COc1ccc(CNC2CCCC2)cc1,inactive: 108%
10,COc1ccc(S(=O)(=O)NCC(c2ccc(N(C)C)cc2)N2CCc3ccccc32)cc1F (stereo unspecified),inactive: 91%
11,CCOc1ccc(N(CC)S(=O)(=O)N2CCCC(C(=O)Nc3ccc(OC)c(Cl)c3)C2)cc1 (stereo unspecified),inactive: 83%
12,COc1cccc(NC(=O)CSc2c3c(nc4ccccc24)CCCC3)c1,inactive: 43%
13,O=C(O)c1ccccc1C(=O)Nc1cccnc1,inactive: 108%
14,Cc1cccc(NC(=O)CN2C(=O)CSc3ccc(S(=O)(=O)N4CCCC4)cc32)c1C,inactive: 98%
15,COc1ccc(-c2onc(C)c2C)cc1S(=O)(=O)N1CCN(c2cc(C)ccc2C)CC1,inactive: 55%
16,Cc1c(Cl)ccc2sc(N3CCN(C(=O)C4CC4)CC3)nc12,inactive: 73%
17,COc1ccc(-c2cc3nc(C)c(CCC(=O)NC(C)c4ccccc4)c(C)n3n2)c(OC)c1 (stereo unspecified),inactive: 83%
18,O=C(Nc1ccccc1C(F)(F)F)N1CC=C(c2c[nH]c3ccccc23)CC1,inactive: 127%
19,COC(=O)CC(=O)CSc1nc2cc(C(=O)NCC(C)C)ccc2c(=O)n1CCc1ccccc1,inactive: 133%
20,Cc1nn(C(=O)c2cccc([N+](=O)[O-])c2C)c(C)c1S(=O)(=O)N1CCCCCC1,active: -4%
21,CC1CCN(S(=O)(=O)c2ccc3c(c2)CCN3C(=O)Nc2ccc(Br)cc2F)CC1,inactive: 84%
22,Cc1cccc(NC(=O)N2CCC(CN3CCCCCC3)CC2)c1C,inactive: 55%
23,CCOc1ccccc1C(=O)N1CCC(c2nc3ccccc3o2)CC1,inactive: 81%

row,Structure (SMILES),survival
1,COc1ccc(OC)c(NC(=O)CC(=O)Nc2ccc3nc4n(c(=O)c3c2)CCCCC4)c1,inactive: 67%
2,Cc1nc(SCC(=O)Nc2ccc(C(=O)O)cc2)n[nH]1,inactive: 78%
3,CCc1ccccc1NC(=O)Cn1nc(N2CCN(c3ccccc3OC)CC2)ccc1=O,inactive: 82%
4,O=C(Cn1c(C(=O)NC2CCCCC2)cc2sccc21)c1ccccc1,inactive: 136%
5,N#Cc1cc(-c2ccccc2C(F)(F)F)no1,inactive: 93%
6,Cc1ccc(C2CCN(C(=O)c3cnn(-c4ccc(C)c(C)c4)c3C3CCN(C(=O)OC(C)(C)C)CC3)C2)cc1 (stereo unspecified),inactive: 72%
7,Cc1cc(C)c(OCCOCCn2c(-c3ccc(Cl)cc3)nc3ccccc3c2=O)c(C)c1,inactive: 51%
8,CS(=O)(=O)N(Cc1ccccc1)c1ccc(C(=O)Nc2ccc(Cl)cc2)cc1,inactive: 168%
9,Cc1cccc(-n2nc(C)c(C(=O)N3CCN(c4ccccc4)CC3)c2-n2cccc2)c1,inactive: 53%
10,NC(=O)CSc1nc2ccc(NC(=O)COc3ccccc3Cl)cc2s1,inactive: 98%
11,Cc1ccc(C)c(N2CCN(C(=O)C(CC(C)C)NS(=O)(=O)c3ccc4nc(C)sc4c3)CC2)c1 (stereo unspecified),inactive: 118%
12,Cc1cc(F)ccc1NC(=O)CCn1nc(C)c(S(=O)(=O)N2CCCCC2)c1C,inactive: 72%
13,COc1cc(C(=O)NCC#N)cc(OC)c1OC,inactive: 97%
14,COc1ccccc1C(=O)Nc1ccc(S(=O)(=O)Nc2ncccn2)cc1,inactive: 80%
15,CCOc1ccc(-c2cc(C(=O)NCCc3ccc(OC)c(OC)c3)c3c(-c4ccc(F)cc4)[nH]nc3n2)cc1,inactive: 94%
16,COc1cccc(-c2nc(SCC(=O)Nc3ccc4c(c3)OCCO4)c(-c3ccc(C)cc3)[nH]2)c1,inactive: 77%
17,O=C1OCCC1Sc1nc2ccccc2n1Cc1ccccc1 (stereo unspecified),inactive: 114%
18,COc1ccc(Cl)cc1NC(=O)c1cc(S(=O)(=O)N(C)Cc2ccccc2)ccc1F,inactive: 91%
19,Cc1cccc(OCCCn2c(CCNC(=O)C3CCCCC3)nc3ccccc32)c1,inactive: 34%
20,COc1ccccc1CN(Cc1c(Cl)cccc1Cl)S(=O)(=O)c1ccc(Br)cc1,inactive: 74%
21,Cn1c(=O)[nH]c(=O)c2c1nc(CN1CCN(c3ccccc3F)CC1)n2Cc1ccc(F)cc1,inactive: 120%
22,Cc1ccc(C)c(N2CCN(c3nc4ccc(C(=O)c5ccccc5)cc4n4cnnc34)CC2)c1,inactive: 100%
23,CCOC(=O)c1cnc2c(C)cccc2c1Nc1ccc(OC(C)C)cc1,active: 3%

row,Structure (SMILES),survival
1,O=C(NCCc1ccc(Cl)cc1)c1ccc(CSCc2cccc(Cl)c2)o1,inactive: 99%
2,CCOc1cc(C2NC(=O)NC(C)=C2C(=O)Nc2ccc(F)cc2)ccc1O (stereo unspecified),inactive: 69%
3,Cn1cc(S(=O)(=O)c2cccc(Cl)c2)c(=O)c2cc(F)c(N3CCCCC3)cc21,inactive: 60%
4,CCN(CC)c1ncnc2ccc(Br)cc12,inactive: 109%
5,Cc1ccc(Cl)cc1NC(=O)c1oc2ccc(S(=O)(=O)N3CCCCCC3)cc2c1C,inactive: 92%
6,Cc1cc(C)cc(OCC(=O)N2CCC(c3nc4ccccc4s3)CC2)c1,inactive: 82%
7,Cc1cc(C(=O)O)c(CN2CCCC2)o1,inactive: 109%
8,O=C(O)CCCC(=O)n1cnc2ccccc21,inactive: 108%
9,CCc1cccc(C)c1NC(=O)CSc1nc2c(c(=O)[nH]1)CCC2,inactive: 110%
10,CCCN1C(=O)C(Cc2nc3ccccc3c(=O)n2-c2ccc(OC)cc2)c2cc(C)ccc21 (stereo unspecified),inactive: 80%
11,CCCN(C(=O)Nc1cn(CC(C)C)c(=O)c2ccccc12)c1ccc(F)cc1,inactive: 85%
12,O=C(Nc1ccccc1)NC1(C(=O)NCc2ccc3c(c2)OCO3)CCCCC1,inactive: 106%
13,Cc1ccc2oc(=O)n(CCNC(=O)Nc3ccc(Cl)cc3)c2c1,inactive: 79%
14,Cc1cc(C(=O)NCc2ccccc2Cl)c2c(C)nn(-c3cccc(F)c3)c2n1,inactive: 74%
15,O=C(NCC(c1ccco1)S(=O)(=O)c1cccs1)c1ccc(Cl)cc1 (stereo unspecified),inactive: 81%
16,CC(=O)N1CCc2c(sc3c2c(=O)n(-c2ccc(C)cc2)c(=O)n3Cc2ccccc2C)C1,inactive: 129%
17,CCCCNC(=O)c1ccc2c(c1)NC(=O)C(CS(=O)(=O)Cc1ccc(C)cc1)N2 (stereo unspecified),inactive: 72%
18,Cc1ccc(C(=O)Nc2ccc3oc(-c4ccccc4C)nc3c2)cc1,inactive: 84%
19,S=c1[nH]c2ccc3ccccc3c2[nH]1,inactive: 105%
20,Cc1cc(NC(=O)c2cccn2-c2nnc(N3CCCCC3)s2)ccc1Br,inactive: 121%
21,CCN1CCN(c2oc(/C=C/c3cc(OC)c(OC)c(OC)c3)nc2C#N)CC1,inactive: 91%
22,O=C(NCc1cccs1)c1c[nH]c2c(F)cccc2c1=O,inactive: 100%
23,CCCCN(C)S(=O)(=O)c1ccc(C(=O)Nc2ccc(-c3nc4ccc(C)cc4s3)cc2)cc1,inactive: 87%

row,Structure (SMILES),survival
1,CC(C)C(=O)OCc1cc(=O)n2nc(C3CC3)sc2n1,inactive: 93%
2,COc1cc(OC)c(C2C(C(=O)Nc3ccccc3)=C(C)Nc3ncnn32)cc1OC (stereo unspecified),inactive: 74%
3,COc1ccc(-c2noc(CC(=O)Nc3ccc(C)c(F)c3)n2)cc1,inactive: 88%
4,Cc1cc(Cl)ccc1NC(=O)CCCn1nc(C)c2c(C)n(-c3ccccc3)nc2c1=O,inactive: 118%
5,CCc1ccc(C2c3c(oc4cc(C)c(C)cc4c3=O)C(=O)N2c2nc(C)c(C(=O)OC)s2)cc1 (stereo unspecified),inactive: 80%
6,CCC1CN(C(=O)Nc2cc(Cl)c(OC)cc2OC)c2ccccc2O1 (stereo unspecified),inactive: 85%
7,COc1cc(C2Nc3ccccc3-c3nnc(SCc4ccc(C)cc4)nc3O2)cc(OC)c1O (stereo unspecified),inactive: 124%
8,CCc1nn(CC(=O)NCCCc2ccccc2)c(=O)c2cc3ccccc3n12,inactive: 83%
9,Cc1c(Cl)cccc1NC(=O)Cn1c(=O)n(Cc2nc(-c3ccccc3)no2)c(=O)c2cc3c(cc21)OCO3,inactive: 135%
10,CSc1ccc(CCNC(=O)c2cc3cc4cc(C)ccc4nc3s2)cc1,inactive: 148%
11,Cc1ccc(Cn2c(=O)c3cccnc3n(CC(=O)Nc3cc(Cl)ccc3C)c2=O)cc1,inactive: 82%
12,CCCC(=O)Nc1cccc(-c2cn3c(C)csc3n2)c1,active: -6%
13,CCc1ccc(CNC(=O)c2cnc3c(C)cccn3c2=O)cc1,inactive: 66%
14,Cc1c(Cl)cccc1NC(=O)C1CCN(c2nc3ccccc3[nH]2)CC1,inactive: 69%
15,Cc1ccc(Nc2cc(C)c(C#N)c3nc4ccccc4n23)c(C)c1,inactive: 67%
16,Cc1ccccc1N1CC(c2nnc(NC(=O)c3ccco3)s2)CC1=O (stereo unspecified),inactive: 94%
17,CCn1c(C(NC(=O)c2ccc(C)cc2)C(C)C)n[nH]c1=S (stereo unspecified),inactive: 116%
18,CCOC(=O)C1CCCN(S(=O)(=O)c2ccc(OC)cc2)C1 (stereo unspecified),inactive: 110%
19,CCn1c(SCC(N)=O)nc2ccccc21,inactive: 116%
20,Cc1cccc(N2CCN(Cc3cc(=O)oc4cc(C)ccc34)CC2C)c1 (stereo unspecified),inactive: 84%
21,CC(C)c1ccc(CNc2nc(-c3ccco3)nn2S(=O)(=O)c2ccc(F)cc2)cc1,inactive: 88%
22,CCCC1(C(=O)OC)NC(c2ccco2)C2C(=O)N(C)C(=O)C21 (stereo unspecified),inactive: 106%
